The text below walks through data of patent US20200339702A1 (ULTRAHUMAN THIRTEEN, published 2020).

The target in assay [1] is human ERBB3 human Fc tagged recombinant protein (human) (UniProt P21860). Kind of assay: direct binding ELISA on coated human ERBB3-Fc, IgG1 titrated.
Assay [2] concerns the target rhesus monkey ERBB3 human Fc tagged recombinant protein (rhesus monkey (Macaca mulatta)). Kind of assay: direct binding ELISA on coated rhesus ERBB3-Fc, IgG1 titrated. (In an ELISA, binding on a coated surface is turned into a signal by an enzyme label.)
The target of assay [3] is T1, human ERBB3 His tagged, monomeric (human, UniProt P21860 partial chain, biotinylated in the Alphascreen assays (sites not given)).
T1 construct: Used unbiotinylated as Biacore analyte and biotinylated in Alphascreen; treated as one molecule; also called human ERBB3-His (Acrobiosystems); biotinylated monomeric human ERBB3
The assay is described as follows: Alphascreen competition, solution phase; competitor h24C05 IgG1. (In general: Bead proximity is the source of the signal in Alpha formats.)

B1: chimeric 24C05 IgG1 (antibody, from another filing)
heavy: EVQLVESGGGLVKPGGSLKLSCAASGFTFSDYAMSWVRQTPEKRLEWVATISDGGTYTYYPDNVKGRFTISRDNAKNNLYLQMSHLKSEDTAMYYCAREWGDYDGFDYWGQGTTLTVSSASTKGPSVFPLAPSSKSTSGGTAALGCLVKDYFPEPVTVSWNSGALTSGVHTFPAVLQSSGLYSLSSVVTVPSSSLGTQTYICNVNHKPSNTKVDKRV[in this place human IgG1 Fc]
light: DIQMTQSPSSLSASLGERVSLTCRASQEISGYLSWLQQKPDGTIKRLIYAASTLDSGVPKRFSGSRSGSDYSLTIGSLESEDLADYYCLQYDSYPYTFGGGTKLEIKRTVAAPSVFIFPPSDEQLKSGTASVVCLLNNFYPREAKVQWKVDNALQSGNSQESVTEQDSKDSTYSLSSTLTLSKADYEKHKVYACEVTHQGLSSPVTKSFNRGEC
Turning to B1, the EC50 (read off the curve) in assay [1] and in assay [2] was 100 pM in each case. In assay [3], this molecule showed an IC50 of 160 pM.

What is called EC50 (read off the curve) is the concentration giving half of the maximal effect. Usually IC50 stands for the concentration needed to halve the response being measured.
